# Reference: paper PMC2854127, “Structural Basis for Fe–S Cluster Assembly and tRNA Thiolation Mediated by IscS Protein–Protein Interactions” (PLoS Biology, 2010)
# Tests used:
# IscS-IscU complex = IscS-IscU complex (Escherichia coli, UniProt P0A6B9); test: X-ray crystal structure, […] Å; type: binding; conditions: covalent; internal aldimine with Lys206 of IscS; crystals from 0.2 M sodium nitrate, 16% PEG 8000, 0.1 M Bicine pH 9
# IscS-TusA complex = IscS-TusA complex (Escherichia coli, UniProt P0A6B9); test: X-ray crystal structure, […] Å (two crystal forms); type: binding; conditions: covalent; internal aldimine with Lys206 of IscS; crystals from 0.12 M magnesium formate, 20% PEG 3350
# IscS-TusA complex, sequence (P0A6B9 whole entry, looked up, one chain of several): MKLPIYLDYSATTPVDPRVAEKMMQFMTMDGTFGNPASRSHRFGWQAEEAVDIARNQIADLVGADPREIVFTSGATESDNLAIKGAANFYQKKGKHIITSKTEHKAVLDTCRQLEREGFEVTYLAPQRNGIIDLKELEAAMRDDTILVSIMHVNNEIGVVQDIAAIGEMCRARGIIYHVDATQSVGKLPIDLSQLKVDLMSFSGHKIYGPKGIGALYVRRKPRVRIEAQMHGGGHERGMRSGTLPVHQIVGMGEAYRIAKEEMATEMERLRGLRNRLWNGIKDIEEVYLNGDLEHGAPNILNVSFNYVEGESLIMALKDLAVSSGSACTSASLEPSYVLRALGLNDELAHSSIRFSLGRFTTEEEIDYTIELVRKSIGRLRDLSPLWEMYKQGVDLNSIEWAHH
# IscS-IscU complex, sequence (P0A6B9 whole entry, looked up, one chain of several): as above
compound,measurement,setting,value
Cc1ncc(COP(=O)(O)O)c(C=O)c1O [pyridoxal-5′-phosphate],"X-ray crystal structure, 3.0 Å",IscS-IscU complex,presence of the PLP cofactor as an internal aldimine covalently bound to Lys206
same,"X-ray crystal structure, 2.45 Å (two crystal forms)",IscS-TusA complex,presence of the PLP cofactor as an internal aldimine covalently bound to Lys206
